Results: the supplement of paper PMC3334620
In all, about 33,000 sequences were measured (“E-score (-0.5 to 0.5)”: median about -0.036, highest 2% from about 0.37 on). The list shows a part of the results.

target: T1, Yer064c (UniProt P40041); assay: PBM E-score (8-mer binding enrichment) (E-score (-0.5 to 0.5)); higher = stronger / more preferred TF binding; most listed sequences are background and not binding sites; details: protein concentration: 200 nM; construct: GST-full length
T1 sequence: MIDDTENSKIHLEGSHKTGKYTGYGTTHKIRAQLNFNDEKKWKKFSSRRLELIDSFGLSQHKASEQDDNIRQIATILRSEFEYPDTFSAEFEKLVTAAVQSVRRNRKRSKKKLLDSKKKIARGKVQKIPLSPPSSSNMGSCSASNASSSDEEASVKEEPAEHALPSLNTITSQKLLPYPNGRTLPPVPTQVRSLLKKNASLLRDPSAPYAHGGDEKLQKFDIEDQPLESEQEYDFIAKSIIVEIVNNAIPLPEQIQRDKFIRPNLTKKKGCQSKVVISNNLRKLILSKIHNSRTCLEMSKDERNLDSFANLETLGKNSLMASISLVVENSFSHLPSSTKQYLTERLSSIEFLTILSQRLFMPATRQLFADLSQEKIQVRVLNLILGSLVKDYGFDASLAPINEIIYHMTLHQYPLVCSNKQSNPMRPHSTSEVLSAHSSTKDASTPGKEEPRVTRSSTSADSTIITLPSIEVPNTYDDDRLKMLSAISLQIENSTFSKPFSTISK
Procedure: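 Universal 'all 10-mer' protein binding microarrays (Agilent AMADID 015681) probed with GST-tagged S. cerevisiae TFs (full-length or DBD) made by in vitro transcription/translation (PURExpress), about 100-200 nM. Bound TF was detected with fluorescent anti-GST. Each ungapped 8-mer (which stands for itself and its reverse complement) is scored by the PBM enrichment score (E-score), a modified Wilcoxon-Mann-Whitney statistic from -0.5 to +0.5, computed with the Universal PBM Analysis Suite. Scale: above 0.35 generally sequence-specific binding.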

Sequence | PBM E-score
AAGTTGAT | 0.0569
CCGGCTTC | -0.282
CATAATCA | 0.413
ACTGATGC | -0.0721
AGTGTCTG | -0.00225
CCTCTCTC | -0.204
ACCCGGTC | -0.194
ACTTATTC | 0.13
AAGCTTCG | -0.225
CGTGCGAC | 0.105
TAGGACCA | -0.246
CATCCAAA | 0.0387
ATTATATG | 0.204
AGTGGCAG | -0.194
CACTTCGG | -0.131
GGTTCTCA | 0.0795
CCCCGTAG | -0.0708
CTCAATGA | 0.234
AGCAAAGC | -0.147
TAACATTA | -0.00272
TGCGAAAA | 0.0794
CCTCACGA | -0.0431
GTCCGGGA | 0.00941
ATAATTCC | -0.142
CCAATATC | -0.156

Sequence | PBM E-score
ATCTCACA | 0.231
ACCTACCC | -0.108
AAGAGAGG | -0.104
GAAAAGTC | 0.183
AGAATGCT | -0.194
AAATGTTG | -0.325
TACATGGA | -0.0643
CCAGCCAC | -0.0125
GAGCCTAC | 0.00047
ATGAAACG | -0.221
CCCCGTAA | -0.0314
ATTATTGA | 0.0793
AGGGTTGC | -0.203
CAAGCGCC | -0.245
CACAGGAC | 0.111
AGTAGTTC | 0.0493
ACCTAGAG | -0.0157
GTCGGGCA | -0.102
AAATCGAT | 0.178
ACTTTAGG | -0.109
CTTTGCAA | -0.0619
GGCGCTAA | -0.134
CCTCTCAG | -0.261
GACTCCGC | 0.406
AGACGTTG | -0.121

Sequence | PBM E-score
ACCCGTTG | 0.0442
ACCGGAAC | -0.0777
CATTTGGA | 0.0626
AGAGTTCA | 0.0918
GACCCGTC | -0.198
CGGGGGGA | -0.208
CTAAGTTC | -0.00119
AACATATA | -0.0277
AGGGCTGG | -0.22
GGAGATCC | -0.237
AATGTCTA | 0.168
TTGCAAAA | -0.0977
CACCGACC | -0.149
AATGTTAA | 0.0712
ACTGCGAT | 0.0303
AGACCGCA | -0.188
CAAGCAAG | -0.0296
AGCTCCAA | 0.0829
GGCCTCGA | -0.288
CCTGGCAA | -0.288
GTCACTAA | 0.257
ATTACCGC | -0.00207
TCAAGGGA | 0.162
GCTTCCCC | -0.44
ATCAACCC | 0.0851

Sequence | PBM E-score
AGGCGCGA | -0.027
ACCCCACA | 0.0478
AAGGGTGC | -0.138
TAGTCTCA | 0.36
CATTTCCG | 0.158
CTACGACA | 0.116
CCCGCCAG | -0.159
ACCCAGAG | 0.0289
CAAAAAGA | 0.137
CGTTAGGC | -0.237
AACCTACT | -0.229
CTCGGAGC | -0.0319
CCCGTAGC | -0.19
AATAAGCG | -0.0876
CTACACAC | 0.0826
AATTCACA | -0.0891
GACGGGGC | -0.251
CAACGTTA | -0.024
CGAAGTGC | -0.0428
GTATTCCA | -0.0362
TTACTAAA | 0.214
CCTAGGCG | -0.178
GGCAAGTA | 0.0688
AATAAAAC | 0.0489
GTCAGAAA | 0.211

Sequence | PBM E-score
ACACAACC | 0.0769
CATGATTC | 0.457
ATAATGGA | -0.0018
CGTGCAGC | -0.188
ACCCATTC | 0.158
ATTACTAA | 0.24
GGGGGCCA | -0.21
ACATGCTG | -0.105
ATACTATG | 0.0358
CCTTAACG | -0.106
CACCACCA | 0.0278
AAATGCGG | -0.0645
GTTTGAAA | 0.0216
ACAATGTG | -0.0494
GCCACATA | -0.136
CGCTTACC | -0.223
ACATGCGT | -0.0835
CGACGGAC | -0.0779
CCATTGGA | 0.0747
GATGTGTA | 0.205
CATTTCGC | 0.0492
ATCAAGCG | -0.0196
CTTTGCGC | 0.0446
AAAATGAA | 0.137
GCGCATTA | -0.112

Sequence | PBM E-score
AGATCTTA | 0.137
GTTACTCA | 0.366
CTTGCGCA | 0.0552
CGTGATGC | -0.146
CGGGATGC | -0.242
CCGACGGC | -0.262
CAGTCCCG | 0.0449
CGTGTCAA | -0.129
GCGATTAA | 0.318
AGTAGCTG | 0.0121
AACTATAT | 0.0502
GAGGCGTA | -0.151
CGTGCTAG | -0.2
ATCATCTG | 0.177
AAGATTTC | 0.0103
ACCATTTG | -0.0247
TCAGACCA | 0.0958
AGCTTGAA | 0.018
GAACTAAA | 0.104
CCTTATGA | 0.0853
CCTTTCAG | -0.195
CAAGTTAC | 0.0259
GGAGCGCA | -0.294
ATTTTACC | 0.11
GTTTGGAA | 0.0298

Sequence | PBM E-score
CGCTTCCA | -0.24
ATAGGCGG | -0.0798
CGCGACAC | -0.0809
GGACAGAC | 0.0337
GAAGGATC | -0.0298
ACCACGTA | -0.125
AGTGCGTA | -0.144
CGAGGAAG | -0.105
ACTTCTCA | 0.141
GACAGTGC | -0.142
CGTGAGCA | 0.00099
CAATACCG | -0.235
AGCATGGG | -0.137
GAATGAGA | 0.0143
AATGTGCA | -0.0487
GGAGTGCA | -0.0273
AAGCAAGC | -0.194
GTAAATAC | -0.0376
AGTGAGCG | 0.00506
AAGTTTCC | -0.17
TTGCGAAA | -0.085
GAAAAGTA | -0.0395
AGAGCTAG | -0.238
CTAGAGGA | -0.0154
GTAGTCAC | 0.479

Sequence | PBM E-score
AAGGGGTG | 0.0681
CGCTACTC | 0.0673
ACTTCGAT | -0.0527
AGTGTAGC | -0.0251
GCCTGCAA | -0.234
GATCTGCC | -0.274
AAAGAATC | 0.189
GAGCAGCA | -0.109
ACAGCAAT | 0.00151
CCGTTCCC | -0.177
ATACGATC | -0.0601
CGATGAAC | -0.0561
ACAAGTGG | -0.202
AGGCGGTC | -0.332
CCTCGCGA | -0.0528
ATCCGTAC | 0.185
ACATGCAA | 0.0437
CTTAAACC | -0.0319
GACAATCA | 0.317
CCTGTTTA | -0.215
CACGTGGC | -0.0849
CGAGTAAG | -0.00187
GGCCCACA | -0.0547
GGACCACC | -0.146
AGCTAGTA | -0.0613

Sequence | PBM E-score
CTTCAAAC | -0.0331
GCGATGAA | 0.145
AGCTAGCT | -0.154
AGTATTTA | 0.152
CTGAAACA | 0.0713
ATGGTAGA | -0.0143
GAGGAGGC | -0.181
AACACGGT | 0.00016
AACAAATT | 0.0503
CTTTCTTC | -0.103
CGATGTAG | -0.0652
GGAACATA | -0.0975
CTAACGGA | 0.0623
AGAAATAC | -0.0887
AGGATACG | -0.22
CGAATGAG | 0.0829
ATTTTACG | 0.00819
GGCTAAAA | 0.0687
CCTCTAAC | -0.115
